Experimental findings from the RNAGym collection of RNA variant scans (doi:10.1093/nar/gkz1192) are described below.

The source gives no read counts; variants with many changes may rest on few reads.

The chains are these.
B1: CPEB3 Ribozyme (parent)
chain: UAACAGGGGGCCACAGCAGAAGCGUUCACGUCGCAGCCCCUGUCAGAUUCUGGUGAAUCUGCGAAUUCUGCUGUAUAUCUC

Variants of B1 are the subject of this data set. Put plainly: self-cleavage, relative activity (ratio to wild type); higher = more cleavage; in vitro, sequencing. Put shortly:
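Relative activity was defined as the cleaved/total read fraction for a variant divided by the same fraction for the unmutated ribozyme. CPEB3 self-cleaving ribozyme libraries were made by rounds of error-prone PCR, barcoded, and transcribed in vitro with T7 RNA polymerase for 5 hours at 37°C, and cleavage ran through transcription plus a 15 min DNase I step before EDTA. Illumina sequencing of template-switched reverse transcripts gave the reads, and DNA sequencing mapped the barcodes. Averages come from three batches, using variants with at least 5 reads.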
In the case of UAACAGGGGGCCACAGCGGAAGCGUUCAUGUCGCAGCCCCUGUCAGAUUCUGGUGAAUCUGCGAAUUCUACUGUAUGUCUC [A18G C29U G70A A77G], the self-cleavage was determined as 0.11.

As for UAACAGGGGGCCACAGCGGAAGCGUUCACGUCGCAGCCCCUGUCAGAUUCUGGUGAAUCUGCGAGUUUUGCUGUAUAUCUC [A18G A65G C68U], the self-cleavage came out at 0.08.

For UAACAGGGGGCCACAGCGGAAGCGUUCACGUCGCAGCCCCUGUCAGGUUCUGGUGAAUCUGCGAAUUCUGCUGUAUAUCCC [A18G A47G U80C], the self-cleavage was determined as 0.82.

As to UAACAGGGGGCCACAGCGGAAGCGUUCACGUAGCAGCCCCUGUCAGAUUCUGGUAAAUCUGCGAAUUCUGCUGUGUAUCUC [A18G C32A G55A A75G], the self-cleavage worked out at 0.36.

On to UAACAGGGGGCCACAGCGGAAGUGCUCACGUCGCAGCCCCUGUCAGAUUCUGGUGAGUCUGCGAAUUCUGCUGUAUAUCUC [A18G C23U U25C A57G], for which the self-cleavage came to 0.1.

On to UAACAGGGGGCCACAGCGGAAGCGUUCACGUCGCAGCCCCUGUCAGAUUCUGGUGAAUCUGCGUAUUCUGCUGUAUAUCAC [A18G A64U U80A], for which the self-cleavage was found to be 0.31.

For UAACAGGGGGCCACAGCGGAAGCGUUCACGUCGCAGCCCCUGUCAGGUUCUGGUGAAUCUGCGAAUUCUGCUGUUUAUCUC [A18G A47G A75U], the self-cleavage worked out at 0.78.

Take UAACAGGGGGCCACAGCGGAAGAGUUCACGUCGCGGCCCCUGUCAGAUUCUGGUGAGUCCGCGAAUUCUGCUGUAUAUCUC [A18G C23A A35G A57G U60C]: the self-cleavage came out at 0.08.

Take UAACAGGGGGCCACAGCGGAAGCGUUCACGUUGCAGCCCCUGUCAGAUCCUAGUGAAUCUGCGAAAUCUGCUGUAUAUCUC [A18G C32U U49C G52A U66A]: the self-cleavage was 0.08.

Turning to UAACAGGGGGCCACAGCGGAAGCGUUCACGUCGCAGCCCCUGUCAGGUUCCGGUGAAUCUGCGAAUUCUGCCGUAUAUCUC [A18G A47G U51C U72C], the self-cleavage is 0.53.

For UAACAGGGGGCCACAGCGGAAGCGUUCACGUCGCAGCCCCUGUCAGAUUCUGGUGAGUCUGCGGAUUCUGCUGUAUAUCUC [A18G A57G A64G], the self-cleavage was found to be 0.43.

As for UAACAGGGGGCCACAGCGGAAGCGUUCACGUCGCAGCCCCUGUCAGAUUCUGGUGUAUCUGCGAGUUCUGCUGUAUAUCUC [A18G A56U A65G], the self-cleavage worked out at 0.16.

For the variant UAACAGGGGGCCACAGCGGAAGCGUUCACGUCGCAGCCCCUGUCAGGUUCUGGGGAAUCUGCGAAUUCUGCUGUAUAUCAC [A18G A47G U54G U80A], the self-cleavage stood at 0.64.

Turning to UAACAGGGGGCCACAGCGGAAGCGUUCAUGUCGCAGCCCUUGUCAGACUCUGGUGAAUCUGCGAAUUCGGCUGUAUAUCUC [A18G C29U C40U U48C U69G], the self-cleavage is 0.06.

On to UAACAGGGGGCCACAGCGGAAGCGUUCACGUCGCAGCCCCUGUCAGAUUCUGGUGAGACUGCCAAUUCUUCUGUAUAUCUC [A18G A57G U58A G63C G70U], for which the self-cleavage came to 0.09.

For the variant UAACAGGGGGCCACAGCGGAAGCGUUCAUGUCGCAGCCCCUGUCAUAUUCUGGUGAAUCUGCGAAUUCCGCUGUAUAUCUC [A18G C29U G46U U69C], the self-cleavage was 0.13.

For the variant UAACAGGGGGCCACAGCGGAAGCGUUCACGUCGCAGCCCCUGUCAGAUUCUGGUGGAUCUGCGAAUUCUGCUGUAUAUCCC [A18G A56G U80C], the self-cleavage came to 0.6.

Turning to UAACAGGGGGCCACAGCGGAAGCGUUCACGUCGCAGCCCCUGUCAGUUUCUGGUGAAUCUGCGAAUUCUGCUGUAUACCUC [A18G A47U U78C], the self-cleavage was found to be 0.26.

UAACAGGGGGCCACAGCGGAAGAGUUCACGGCGCAGCCCCUGUCAGAUUCUGGUGGAUCUGCGAAUUCUGCUGUAUAUCUC [A18G C23A U31G A56G]: the self-cleavage was 0.05.

Regarding UAACAGGGGGCCACAGCGGAAGCGUUCACGUCGCAGCACCAGUCAGAUUCUGGUGAAUCUGCGAAUUCUGCUGUAUAUCUC [A18G C38A U41A], the self-cleavage stood at 0.24.

For the variant UAACAGGGGGCCACAGCGGAAGCGUUCAUGUCGCAGCCCCUGUCAGAUUCUGGUGAAUCUGCGAAUUCUGCUGCAUAUCUC [A18G C29U U74C], the self-cleavage came to 0.28.

In the case of UAACAGGGGGCCACAGCGGAAGCGUUGACGUCGCAGCCCCUGUCAGAUCCUGGAGAACCUGCGAAUUCUGGUGUAUAUCUC [A18G C27G U49C U54A U58C C71G], the self-cleavage came out at 0.05.

As for UAACAGGGGGCCACAGCGGAAGCGUUCAGGUCGCAGCCCCUGUCAGAUUCUGGUGAAUCCGCGAAUUCUGCUGUGCAUCUC [A18G C29G U60C A75G U76C], the self-cleavage worked out at 0.2.

With UAACAGGGGGCCACAGCGGAAGCGUUCACGUCGCAGCCCCUGUCAGGUCCUGGUGAGUCUGCGGAUUCUGCUGUAUAUCUC [A18G A47G U49C A57G A64G], the self-cleavage came out at 0.36.

For the variant UAACAGGGGGCCACAGCGGAAGAGUUAACGCCGCAGCCCCUGUCAGAUUCCGGUGAAUCUGCGAAUUCUGCUGUAUAUCUC [A18G C23A C27A U31C U51C], the self-cleavage stood at 0.14.

As for UAACAGGGGGCCACAGCGGAAGCGUUCACGUCGCAGCCCCUGUCAGGUUCUGGUGAAUCUGCGAAUUCCGCUGUAUAACUC [A18G A47G U69C U78A], the self-cleavage came to 1.19.

For UAACAGGGGGCCACAGCGGAAGCGUUCACGUCGCAGCCCCUGUCAGAUUCUGGUGGAUCUGCGAAUUCUGCUGUAUACCUC [A18G A56G U78C], the self-cleavage came to 0.38.

As for UAACAGGGGGCCACAGCGGAAGCGUUCACGUCGCAGCCCCUGUCAGGUUCUGGAGAAUCUGCGGAUUCUGCUGUAUAUCUC [A18G A47G U54A A64G], the self-cleavage turned out to be 0.3.

With UAACAGGGGGCCACAGCGGAAGCGUUAACGUCGCAGCACCUAUUAGAUUCUGGUGAAUCUGCGAAUUCUGCUGUAUAUCUC [A18G C27A C38A G42A C44U], the self-cleavage was determined as 0.05.

In the case of UAACAGGGGGCCACAGCGGAAGCGUUCACGUCGCAGCCCCUGUCAGAUUCUGGUGAAUCUGCGAAUUCUGCUGUAUGUCCC [A18G A77G U80C], the self-cleavage was found to be 0.87.

In the case of UAACAGGGGGCCACAGCGGAAGCGUUCACGUCGCAGCCCCUGUCAGAUUCUGGUGAAUCUGCGUAUCCCGCUGUAUAUCUC [A18G A64U U67C U69C], the self-cleavage came out at 0.2.

For UAACAGGGGGCCACAGCGGAAGCGUUCACGUAGCAGCCCCUGUCAGAUUCUGGUGAAUCUGCGAGUUCUGCUGUAUAUCUC [A18G C32A A65G], the self-cleavage is 0.09.

For UAACAGGGGGCCACAGCGGAAGCGUUCACGUCGCAGCCCCUGUCAGUUUCAGGCGAAUCCGCGAAUUCUGCAGUAUAUCAC [A18G A47U U51A U54C U60C U72A U80A], the self-cleavage is 0.07.

UAACAGGGGGCCACAGCGGAAGCGUUCACGUCGCAGCCCCUGUCAGAUUCUGGUGAAUCUGCGUAUUCUGCUGCAUAUCUC [A18G A64U U74C]: the self-cleavage came out at 0.49.
